Results published in PubChem BioAssay AID588453 (National Center for Advancing Translational Sciences (NCATS), 2011).
Several values for one entry are separate records, joined by “and”; a condition that tells them apart may be missing. Equal entries are not always repeated. Among all 390,000 compounds or so, about 4,000 (1%) were called active. The inconclusive results got no clear call from the source; some entries with a clear call stand among them for comparison. The call rests on the fitted dose curve; in most records, active means well fitted inhibition curve with a large enough effect; inconclusive means small, poorly fitted or top-dose-only effect; inactive means no such curve, though single readings can be large or run the other way. Potencies beside an inconclusive call are fits to weak or partial responses and may not hold up.
Further: nearly all actives have a fitted effect of over 65% in size.
On the % scale 0 is the no-effect control and ±100 the full control effect; potency means the concentration at half of the fitted maximal effect; tags describe the fitted curve by direction and shape.

These molecules were tested against Thioredoxin reductase 1, cytoplasmic (Rattus norvegicus) (UniProt O89049) (assay: qHTS Assay for Inhibitors of Mammalian Selenoprotein Thioredoxin Reductase 1 (TrxR1): qHTS). Conditions: recombinant rTrxR1, NADPH fluorescence consumption, selenite substrate; series mostly up to 114 µM; activity change, negative = inhibition: at the top concentration.
Sequence of UniProt O89049 (O89049 whole entry, looked up): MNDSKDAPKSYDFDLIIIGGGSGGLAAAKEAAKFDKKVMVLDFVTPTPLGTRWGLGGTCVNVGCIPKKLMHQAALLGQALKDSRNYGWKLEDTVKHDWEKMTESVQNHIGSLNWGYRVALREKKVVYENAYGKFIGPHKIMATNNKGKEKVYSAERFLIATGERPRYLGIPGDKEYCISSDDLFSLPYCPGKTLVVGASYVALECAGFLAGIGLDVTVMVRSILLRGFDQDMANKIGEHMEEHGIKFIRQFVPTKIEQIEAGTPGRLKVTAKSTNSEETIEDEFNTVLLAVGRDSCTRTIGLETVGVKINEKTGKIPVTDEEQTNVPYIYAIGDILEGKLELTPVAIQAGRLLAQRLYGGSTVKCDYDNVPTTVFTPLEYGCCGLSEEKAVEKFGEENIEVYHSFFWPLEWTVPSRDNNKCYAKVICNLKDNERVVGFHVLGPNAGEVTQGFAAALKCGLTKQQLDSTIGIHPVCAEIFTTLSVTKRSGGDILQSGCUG
Method in brief: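 Rat TrxR1 (90 nM in the dispensed reagent) was pre-reduced with 400 uM NADPH for 5 min at room temperature, then incubated with compound for 15 min. After 400 uM selenite was added, NADPH fluorescence (Ex 340/Em 450 nm) was followed for 8 min.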
`COc1ccc(NC(=S)N/C(=N/S(=O)(=O)c2ccc(C)cc2)c2ccccc2)cc1` was tested, and the Potency was active: 22.4 µM. With `CC1CCCN(c2ncnc3c2cnn3-c2ccc(F)cc2)C1` (stereo not given) the “activity change, negative = inhibition” value was inactive: 0.0809% [at 57.1 µM]. With `O=C(CS(=O)(=O)Cc1ccccc1)N1CCN(Cc2ccc3c(c2)OCO3)CC1` the Potency was inconclusive: 44.7 µM [inhibitor, partial curve, poor fit]. With `CCCC(=O)Nc1sc2c(c1C#N)CCCC2` the “activity change, negative = inhibition” value was inactive: 6.26% [at 57.1 µM]. For `CCCC(=O)Nc1ccc(C(=O)n2nnc3ccccc32)cc1`, the Potency was inconclusive: 3.16 µM [inhibitor, full curve, poor fit]. For `Cc1ccc2c(c1)C(=O)C(=O)N2Cc1ccc(OCCC(C)C)cc1`, the “activity change, negative = inhibition” value was inactive: 11.9%. With `COc1ccccc1/C=C/C=C1\Oc2c(ccc(O)c2CN2CCN(CCO)CC2)C1=O` the Potency was active: 25.1 µM. For `Cc1cc(C(=O)N/N=C\c2ccc(COc3ccc([N+](=O)[O-])cc3)o2)ccc1[N+](=O)[O-]`, the Potency was inconclusive: 89.1 µM [inhibitor, single point]. In the case of `O=C(O)c1cccc(NC2=C(N3CCOCC3)C(=O)c3ccccc3C2=O)c1`, the Potency is reported as inconclusive: 79.4 µM [inhibitor, single point]. For `Cc1ccc(CSc2oc(-c3ccco3)nc2S(=O)(=O)c2ccc(Br)cc2)cc1`, the Potency was inconclusive: 50.1 µM [inhibitor, partial curve]. In the case of `CNC(=S)N/N=C(\C)c1ccc(N2CCOCC2)cc1`, the Potency is reported as inconclusive: 56.2 µM [inhibitor, partial curve]. `Cc1nccn1-c1c2c(c(C#N)c3nc4ccccc4n13)CCC2` was tested, and the Potency was inconclusive: 50.1 µM [inhibitor, partial curve]. For `Cc1ccc(C)c(N2CCN(C(=O)CCC(=O)Nc3nnc(C(F)(F)F)s3)CC2)c1`, the Potency was inconclusive: 89.1 µM [inhibitor, single point]. In the case of `S=C(NCc1ccco1)Nc1ccccn1`, the Potency is reported as inconclusive: 79.4 µM [inhibitor, single point]. `Cc1ccc(S(=O)(=O)N(C)c2ccc(C(=O)Nc3ccccn3)cc2)cc1` was tested, and the “activity change, negative = inhibition” value was inactive: 8.46%. For `O=C(CSc1ccc(-c2ccco2)nn1)NCCc1ccccc1`, the Potency was active: 17.8 µM. `CCOC(=O)c1cccc(NC(=O)CCS(=O)(=O)c2cccs2)c1` was tested, and the Potency was active: 22.4 µM. For `Cc1oc(=O)c(NC(=O)c2ccccc2)cc1C(=O)c1ccccc1`, the Potency was active: 39.8 µM. In the case of `CC(C)C(=O)Nc1ccc(-c2csc(-c3ccccc3)n2)cc1`, the Potency is reported as inconclusive: 79.4 µM [inhibitor, partial curve, poor fit]. For `CS(=O)(=O)c1ccc(-c2sc3cc4c(cc3c2C(=O)NN2CCOCC2)OCO4)cc1`, the Potency was inconclusive: 50.1 µM [inhibitor, partial curve]. With `O=C(O)CCCCCNC(=O)/C=C/c1ccco1` the Potency was inconclusive: 28.2 µM [inhibitor, full curve]. In the case of `CC1CCC(NC(=O)C2CCN(c3c4c(nc5ncnn35)CCC4)CC2)CC1` (stereo not given), the “activity change, negative = inhibition” value is reported as inactive: 20.8%. With `Cc1ccc(-n2nc3ccc(NC(=O)/C=C/c4ccco4)cc3n2)cc1C` the Potency was inconclusive: 17.8 µM [inhibitor, full curve, poor fit]. For `Cc1snc(SCC(=O)c2ccc([N+](=O)[O-])cc2)c1C#N`, the Potency was inconclusive: 17.8 µM [inhibitor, single point]. For `CCN(CC)S(=O)(=O)c1cccc(NC(=O)COC(=O)c2cccs2)c1`, the Potency was inconclusive: 12.6 µM [inhibitor, partial curve, poor fit]. With `Cc1ccc(-c2csc(NC(=O)/C=C/c3ccco3)c2C(=O)O)cc1` the Potency was active: 35.5 µM. `COc1cccc2c1[C@@H]1CN(CCCCn3c(=O)[nH]c4c(sc5ncc(-c6ccccc6)nc54)c3=O)C[C@@H]1CO2` was tested, and the Potency was “inactive and inconclusive: 63.1 µM [inhibitor, partial curve, poor fit]”. In the case of `CCOc1ccccc1N(C(=O)c1snc(C(N)=O)c1N)C(C(=O)NCc1ccccc1)c1ccc(O)cc1` (stereo not given), the “activity change, negative = inhibition” value is reported as inactive: 22.2% [at 57.1 µM]. In the case of `Cc1[nH]c2ccccc2c1C(O)CN1CCN(c2cccc(C(F)(F)F)c2)CC1` (stereo not given), the Potency is reported as inconclusive: 50.1 µM [inhibitor, single point]. In the case of `CCOc1ccccc1N1CCN(C(=O)c2c(C)noc2C)CC1`, the Potency is reported as inconclusive: 56.2 µM [inhibitor, single point]. In the case of `CCOc1cc(C2NC(=O)N(C)C(C)=C2C(=O)OC)cc(Br)c1O` (stereo not given), the Potency is reported as inconclusive: 6.31 µM [inhibitor, single point]. In the case of `C=CCOc1ccc(C2NC(=S)NC(c3ccccc3)=C2C(C)=O)cc1OC` (stereo not given), the Potency is reported as inconclusive: 79.4 µM [inhibitor, single point]. For `CC(O)[C@H]1CC[C@H]2[C@@H]3CC[C@H]4C[C@@H](O)CC[C@]4(C)[C@H]3/C(=N/O)C[C@]12C` (stereo not given in full), the “activity change, negative = inhibition” value was inactive: 8.52%. With `CCN1/C(=C/C(=O)c2ccco2)Sc2ccccc21` the Potency was inconclusive: 79.4 µM [inhibitor, single point]. For `CCOC(=O)c1c(C)c(-c2ccccc2)n(CC(=O)Nc2cccc(F)c2)c1C`, the “activity change, negative = inhibition” value was inactive: 19.1%. For `Cc1n[nH]c(=O)nc1N/N=C/c1ccc(O)c([N+](=O)[O-])c1`, the Potency was inconclusive: 79.4 µM [inhibitor, single point]. `COCCCNc1ncnc2c1sc1nc(-c3ccco3)c3c(c12)CC(C)(C)OC3` was tested, and the Potency was inconclusive: 25.1 µM [inhibitor, single point]. In the case of `Cc1nc([N+](=O)[O-])c(Br)n1CC(=O)c1cccc([N+](=O)[O-])c1`, the Potency is reported as active: 7.08 µM. With `CCN(CC)S(=O)(=O)c1cc(C(=O)Nc2ccccc2C(=O)O)ccc1OC` the Potency was inconclusive: 17.8 µM [inhibitor, partial curve, poor fit]. For `COc1cc(/C=C/CN2CCC(Oc3ccc(C(=O)N4CCCC4)cc3)CC2)ccc1O`, the Potency was inconclusive: 50.1 µM [inhibitor, partial curve]. `CCOc1ccc(NC(=S)NCCN2CCN(Cc3ccccc3)CC2)cc1` was tested, and the Potency was inconclusive: 70.8 µM [inhibitor, partial curve]. `Cc1ccc(-n2c(=O)cc(N3CCC(C)CC3)[nH]c2=O)cc1` was tested, and the Potency was inconclusive: 2.82 µM [inhibitor, full curve, poor fit]. `Cc1ccc(NC(=O)CSCc2cc(=O)n3ccsc3n2)cc1` was tested, and the Potency was inconclusive: 79.4 µM [inhibitor, single point]. For `O=C(NC1CCCCC1)N(CCN1CCOCC1)Cc1cc2cc3c(cc2[nH]c1=O)OCCO3`, the “activity change, negative = inhibition” value was inactive: 5.58% [at 57.1 µM]. In the case of `Clc1ccc(-c2nnc(Sc3nc4ccccc4o3)c3ccccc23)cc1`, the Potency is reported as inconclusive: 44.7 µM [inhibitor, single point]. In the case of `COc1ccc(Nc2ncc(C(=O)Nc3cc(Cl)c(OC)cc3OC)c3ccccc23)cc1`, the Potency is reported as inconclusive: 89.1 µM [inhibitor, single point]. For `CCC(=O)NC(=S)Nc1ccc(S(=O)(=O)NC2CCCCC2)cc1`, the Potency was inconclusive: 39.8 µM [inhibitor, single point]. In the case of `CCCOc1ccc(/C(O)=C2/C(=O)C(=O)N(CCN(C)C)C2c2ccco2)cc1` (stereo not given), the Potency is reported as inconclusive: 31.6 µM [inhibitor, partial curve]. For `N#Cc1ccc(OC(=O)c2cnccn2)cc1`, the Potency was inconclusive: 56.2 µM [inhibitor, partial curve]. For `COc1ccc(S(=O)(=O)N2CCN(Cc3cc(OC)c(O)c(OC)c3)CC2)cc1`, the Potency was inconclusive: 56.2 µM [inhibitor, single point]. `C=CCn1cc(/C=N\NC(=O)c2cc3c(ccc4ccccc43)o2)c2ccccc21` was tested, and the “activity change, negative = inhibition” value was inactive: -0.82%. `O=C(NCc1ccncc1)c1cccc(S(=O)(=O)Nc2ccc(SC(F)F)cc2)c1` was tested, and the “activity change, negative = inhibition” value was inactive: 23.8%. `N#CC(C#N)=C1C=CC=CN1/C(=C\c1ccco1)C(=O)c1ccc(Br)cc1` was tested, and the Potency was active: 1.12 µM. For `CCCCN1CC(=O)N2[C@H]3c4cc(C)ccc4OC[C@@H]3[C@H](C(=O)OCC)[C@]2(C)C1=O`, the “activity change, negative = inhibition” value was inactive: 0.0377%. In the case of `CCCNC(=O)c1nnsc1S(=O)c1ccc(Cl)cc1` (stereo not given), the Potency is reported as active: 0.562 µM. `CN(C(=O)CSc1nc2ccc(NC(=O)CCc3ccccc3)cc2s1)c1ccccc1` was tested, and the “activity change, negative = inhibition” value was inactive: 24.9%. For `COc1ccccc1NC(=O)CN(Cc1ccco1)C(=O)c1ccc(-n2nc(C)cc2C)cc1`, the “activity change, negative = inhibition” value was inactive: 6.86%. `COc1cc(O)ccc1-c1nc2cc(C)ccn2c1Nc1ccccc1C` was tested, and the “activity change, negative = inhibition” value was inactive: -32%. For `NS(=O)(=O)c1ccc(NC(=S)NC2CCCCCC2)cc1`, the Potency was active: 15.8 µM. For `CC(C)(O)C1Cc2cc(/C=C/C(=O)O)c(O)cc2O1` (stereo not given), the Potency was inconclusive: 15.8 µM [inhibitor, single point]. `CCC(Cc1ccccc1)NS(=O)(=O)c1ccc2c(c1)NC(=O)CS2` (stereo not given) was tested, and the Potency was inconclusive: 89.1 µM [inhibitor, single point]. For `COc1ccc(Oc2nc(-c3ccncc3)nc3ccccc23)cc1`, the “activity change, negative = inhibition” value was inactive: -7.33% [at 57.1 µM]. For `COc1ccc(NC(=O)C2CC(=O)n3cnnc3S2)cc1` (stereo not given), the Potency was inconclusive: 0.891 µM [inhibitor, full curve, poor fit]. With `O=C(NCCNc1nccc(C(F)(F)F)n1)c1cccc(C(F)(F)F)c1` the “activity change, negative = inhibition” value was inactive: -3.35% [at 57.1 µM]. For `Cn1c(SCC(=O)c2ccccc2F)nnc1C1CC1`, the Potency was inconclusive: 25.1 µM [inhibitor, single point]. With `CC(C)CC(=O)NC(=S)Nc1cccc(NC(=O)c2ccccc2)c1` the Potency was inconclusive: 39.8 µM [inhibitor, partial curve]. For `COCCn1c(=S)[nH]c2cc(C(=O)NCCCN3CCOCC3)ccc2c1=O`, the Potency was inconclusive: 14.1 µM [inhibitor, partial curve]. With `O=C(c1cnn2c(C(F)(F)F)cc(-c3ccccc3)nc12)N1CCCCC1c1cccnc1` (stereo not given) the “activity change, negative = inhibition” value was inactive: 16.6% [at 57.1 µM]. `Fc1ccc(C[n+]2csc3ccccc32)cc1` was tested, and the “activity change, negative = inhibition” value was inactive: -11.6%. In the case of `COc1ccc(/C=C2/C(=O)N(c3ccccc3)N=C2C)cc1Br`, the Potency is reported as inconclusive: 25.1 µM [inhibitor, single point].
